Measurements taken from the supplement of paper PMC12217912.
Some of the results follow. The full chains were built here from the parent and the listed change. Inactive controls read about 0.05.

B1: TEV protease; numbered along this chain (parent)
chain: MGESLFKGPRDYNPISSSICHLTNESDGHTTSLYGIGFGPFIITNKHLFRRNNGTLVVQSLHGVFKVKDTTTLQQHLVDGRDMIIIRMPKDFPPFPQKLKFREPQREERICLVTTNFQTKSMSSMVSDTSCTFPSGDGIFWKHWIQTKDGQCGSPLVSTRDGFIVGIHSASNFTNTNNYFTSVPKNFMELLTNQEAQQWVSGWRLNADSVLWGGHKVFMVKPEEPFQPVKEATQL

Variants of: B1
Assay: raw area under fraction-flipped curve 0-4 h after induction (AUC4h, not background-subtracted), DNA-recorder readout of cleavage of the substrate (dimensionless); higher = more cleavage of the substrate by the protease variant
Conditions: temperature: 34 °C; time window: 0-4 h after rhamnose induction
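Further: Bxb1 expression induced with 0.2% (w/v) L-rhamnose at OD600 near 0.5, cultures sampled hourly, flipped fraction per protease–substrate barcode pair counted by paired-end Illumina sequencing.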

| Variant | area with substrate ECLYFQS | area with substrate EILYFQS | area with substrate EKLYFQS | area with substrate ELLYFQS | area with substrate EQLYFQS | area with substrate ESLYFQS | area with substrate EWLYFQS | area with substrate EGLYFQS | area with substrate EMLYFQS | area with substrate ERLYFQS | area with substrate EVLYFQS | area with substrate EHLYFQS | area with substrate EDLYFQS | area with substrate EYLYFQS | area with substrate EELYFQS | area with substrate EPLYFQS | area with substrate EFLYFQS | area with substrate ETLYFQS |
| --- | --- | --- | --- | --- | --- | --- | --- | --- | --- | --- | --- | --- | --- | --- | --- | --- | --- | --- |
| K68S | 0.121 | 0.0828 | 0.131 | 0.0782 | 0.0821 | 0.1 | 0.0893 |  |  |  |  |  |  |  |  |  |  |  |
| D69A | 0.0896 |  | 0.0777 |  | 0.0973 | 0.102 | 0.0752 | 0.0832 | 0.0909 | 0.0898 | 0.0672 |  |  |  |  |  |  |  |
| T71S | 0.086 | 0.0748 | 0.1 |  |  | 0.0836 |  |  |  | 0.0728 | 0.0908 | 0.0823 |  |  |  |  |  |  |
| T72I | 0.0887 |  |  |  | 0.0913 | 0.0981 | 0.108 | 0.0914 |  | 0.0977 | 0.0961 |  | 0.171 | 0.0803 |  |  |  |  |
| T72W | 0.0851 | 0.071 | 0.102 | 0.0552 |  | 0.0673 |  |  | 0.0884 | 0.0832 | 0.0603 | 0.0547 |  | 0.0556 | 0.0853 | 0.109 |  |  |
| L73M | 0.123 |  | 0.103 | 0.0708 |  | 0.0768 |  |  | 0.0681 | 0.0752 |  |  | 0.0942 |  | 0.101 | 0.0508 | 0.0784 | 0.108 |
| Q74N | 0.119 | 0.115 | 0.0953 |  |  |  | 0.137 |  | 0.0422 |  |  |  |  |  | 0.126 | 0.116 |  |  |
| Q74T | 0.0789 | 0.0381 | 0.0676 | 0.0766 | 0.0725 | 0.066 |  |  | 0.0838 | 0.0575 |  | 0.124 | 0.104 |  |  |  |  |  |
| H76Y | 0.0998 | 0.0693 | 0.0934 |  | 0.0915 | 0.0836 | 0.0825 | 0.0531 | 0.0804 | 0.0844 | 0.085 | 0.0809 | 0.125 |  |  |  |  |  |
| V78Q | 0.0753 |  |  |  | 0.0617 |  |  |  |  |  |  |  |  |  |  |  |  |  |
| D82T | 0.0542 | 0.0413 | 0.0587 | 0.0507 |  | 0.0696 |  | 0.0759 |  | 0.0417 | 0.0477 | 0.0534 |  | 0.0517 | 0.0661 | 0.0615 | 0.0523 |  |
| M83H | 0.0506 | 0.054 |  | 0.074 |  | 0.0436 | 0.0458 | 0.0568 | 0.0651 | 0.0486 | 0.0615 | 0.0529 | 0.0751 | 0.0638 |  |  |  |  |
| M83N | 0.0651 | 0.0516 | 0.0504 | 0.0591 | 0.0529 | 0.0482 |  |  | 0.052 | 0.0407 | 0.0509 |  |  | 0.0619 |  | 0.0523 |  | 0.0353 |
| I84M | 0.101 |  | 0.0689 |  | 0.0858 | 0.0907 |  | 0.0933 |  | 0.107 |  |  | 0.145 | 0.0885 |  |  |  |  |
| I85S | 0.0563 | 0.0465 |  | 0.0513 |  | 0.059 |  |  |  | 0.0435 |  | 0.0601 | 0.0436 |  | 0.0505 |  | 0.0525 |  |
| I86M | 0.101 | 0.0851 | 0.12 | 0.0976 | 0.12 |  | 0.0809 | 0.104 | 0.108 |  | 0.0933 |  | 0.122 | 0.111 |  | 0.121 | 0.122 | 0.101 |
| I86P | 0.033 | 0.0378 |  |  | 0.0418 | 0.0399 | 0.0397 |  |  |  |  | 0.0417 | 0.0336 | 0.0354 |  | 0.0389 | 0.049 | 0.0298 |
| P89R | 0.074 | 0.0595 | 0.0986 |  | 0.092 | 0.0666 | 0.0641 | 0.0635 |  | 0.0725 | 0.0736 |  |  |  | 0.101 | 0.0838 |  |  |

| Variant | area with substrate ECLYFQS | area with substrate EILYFQS | area with substrate EKLYFQS | area with substrate ELLYFQS | area with substrate EQLYFQS | area with substrate ESLYFQS | area with substrate EWLYFQS | area with substrate EGLYFQS | area with substrate EMLYFQS | area with substrate ERLYFQS | area with substrate EVLYFQS | area with substrate EHLYFQS | area with substrate EDLYFQS | area with substrate EYLYFQS | area with substrate EELYFQS | area with substrate EPLYFQS | area with substrate EFLYFQS | area with substrate ETLYFQS |
| --- | --- | --- | --- | --- | --- | --- | --- | --- | --- | --- | --- | --- | --- | --- | --- | --- | --- | --- |
| P89T | 0.101 |  |  |  |  | 0.0836 |  | 0.0798 | 0.0818 | 0.0846 | 0.0744 |  | 0.0888 |  |  |  | 0.0987 | 0.0808 |
| K90D | 0.147 | 0.0895 |  |  |  | 0.0915 | 0.0963 |  | 0.115 |  |  |  | 0.146 |  |  |  | 0.124 | 0.0972 |
| F92M | 0.06 | 0.1 |  |  |  | 0.132 | 0.153 |  |  | 0.109 |  |  |  |  |  |  |  |  |
| F92Q | 0.114 |  | 0.0861 | 0.07 |  | 0.101 | 0.0978 |  | 0.116 | 0.109 | 0.091 | 0.112 | 0.13 |  |  | 0.102 | 0.104 |  |
| F92S | 0.0863 | 0.0801 | 0.0686 |  | 0.103 | 0.0833 |  | 0.0891 |  |  | 0.0848 | 0.0929 | 0.132 |  |  | 0.0907 | 0.0965 |  |
| P94H | 0.0849 |  | 0.126 |  |  | 0.107 |  | 0.106 |  |  |  | 0.0856 |  | 0.106 |  | 0.12 |  | 0.11 |
| F95E | 0.0664 | 0.0507 | 0.0484 | 0.0502 |  | 0.0599 |  |  | 0.0571 | 0.0552 | 0.0504 | 0.0392 | 0.0449 |  | 0.0642 |  | 0.0562 |  |
| L99T | 0.103 |  |  |  |  | 0.146 | 0.0917 |  |  |  |  | 0.104 |  |  | 0.155 | 0.104 |  |  |
| K100P | 0.091 | 0.101 | 0.101 | 0.0828 |  | 0.113 | 0.0887 | 0.0783 | 0.105 |  |  |  | 0.138 | 0.144 |  |  | 0.0902 | 0.118 |
| F101G | 0.0547 | 0.0453 | 0.0477 |  | 0.0629 | 0.0522 |  |  |  | 0.06 |  | 0.0483 |  | 0.0425 |  |  | 0.0506 |  |
| F101M | 0.089 | 0.0845 | 0.0767 | 0.0729 | 0.0953 | 0.0935 |  | 0.0816 |  | 0.088 | 0.0734 |  |  |  |  | 0.104 | 0.12 | 0.11 |
| F101P | 0.0392 | 0.046 | 0.0362 | 0.0638 | 0.0449 | 0.0523 | 0.0665 | 0.049 |  | 0.0497 | 0.0405 |  | 0.06 |  |  |  |  | 0.0532 |
| E107T | 0.124 |  |  | 0.0903 |  | 0.105 |  |  |  |  | 0.11 | 0.107 |  |  |  |  |  |  |
| E108K | 0.0501 | 0.0586 | 0.0755 | 0.0557 | 0.0732 | 0.0958 | 0.0578 |  |  | 0.0586 | 0.0761 | 0.0569 |  |  |  | 0.0724 |  |  |
| R109A | 0.0988 |  | 0.0924 | 0.119 | 0.162 | 0.107 |  |  | 0.0973 | 0.0902 |  |  |  |  |  | 0.163 | 0.113 | 0.104 |
| R109N | 0.0824 |  |  |  |  | 0.0906 |  | 0.0957 |  | 0.086 |  |  |  | 0.0866 | 0.122 |  |  | 0.0994 |
| R109S | 0.0859 | 0.093 | 0.0978 | 0.0563 |  | 0.0903 |  |  |  | 0.0991 |  |  |  | 0.141 | 0.117 | 0.111 | 0.0932 |  |
